Data reported in publication PMC4336329 (PLoS ONE, 2015).
Hit rate of the full screen: of about 310,000 compounds, about 14,000 (4.5%) showed an effect of 50% or more. The effect is printed as a negative number. Some of the results follow.

biological target: human ether-à-go-go-related gene (hERG) potassium channel (human, UniProt Q12809); experiment: primary screen, population patch clamp on CHO cells stably expressing hERG
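Note: peak tail current of the secondary pulse compared with the same well before compound.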

Chain of human ether-à-go-go-related gene (hERG) potassium channel (Q12809 whole entry, looked up): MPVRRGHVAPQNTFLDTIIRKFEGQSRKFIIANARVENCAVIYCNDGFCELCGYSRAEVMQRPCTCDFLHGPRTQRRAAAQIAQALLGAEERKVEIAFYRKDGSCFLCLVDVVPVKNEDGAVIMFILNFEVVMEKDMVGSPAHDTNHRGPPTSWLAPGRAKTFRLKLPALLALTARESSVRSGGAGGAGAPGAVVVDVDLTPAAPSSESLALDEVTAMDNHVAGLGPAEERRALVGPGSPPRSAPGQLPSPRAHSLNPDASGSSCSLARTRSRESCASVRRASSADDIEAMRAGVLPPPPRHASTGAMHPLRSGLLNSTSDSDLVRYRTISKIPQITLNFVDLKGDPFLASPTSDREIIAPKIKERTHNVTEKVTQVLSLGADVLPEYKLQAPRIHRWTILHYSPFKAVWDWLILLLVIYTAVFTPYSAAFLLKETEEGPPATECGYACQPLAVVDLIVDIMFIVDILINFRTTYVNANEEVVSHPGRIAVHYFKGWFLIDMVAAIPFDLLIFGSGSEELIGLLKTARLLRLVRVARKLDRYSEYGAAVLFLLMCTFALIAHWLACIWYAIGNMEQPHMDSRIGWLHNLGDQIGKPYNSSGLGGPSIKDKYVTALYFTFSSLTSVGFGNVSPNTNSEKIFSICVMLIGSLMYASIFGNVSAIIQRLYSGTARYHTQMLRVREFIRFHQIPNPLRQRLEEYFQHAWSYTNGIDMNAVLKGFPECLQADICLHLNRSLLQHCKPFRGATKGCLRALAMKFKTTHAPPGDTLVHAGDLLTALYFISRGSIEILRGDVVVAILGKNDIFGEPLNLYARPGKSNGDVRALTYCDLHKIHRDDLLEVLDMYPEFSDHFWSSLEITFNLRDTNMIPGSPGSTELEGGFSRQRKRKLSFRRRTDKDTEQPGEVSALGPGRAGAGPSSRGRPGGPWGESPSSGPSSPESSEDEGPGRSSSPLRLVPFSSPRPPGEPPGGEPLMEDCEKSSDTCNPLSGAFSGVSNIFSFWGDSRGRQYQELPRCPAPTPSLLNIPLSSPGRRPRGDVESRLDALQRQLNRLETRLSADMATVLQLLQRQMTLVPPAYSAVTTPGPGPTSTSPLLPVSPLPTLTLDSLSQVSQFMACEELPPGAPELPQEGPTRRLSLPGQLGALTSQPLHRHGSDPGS

In order of rising “hERG current change (%, negative = inhibition) at 10uM” value:
1. CCN(CC)CCCn1c(=S)[nH]c2cc(Cl)ccc2c1=O  -68.7%
2. CCCC[n+]1ccc(-c2nc3ccc([N+](=O)[O-])cc3[nH]2)cc1  -59.5%
3. CC(=O)c1ccc(N(C(=O)c2csnn2)C(C(=O)NC(C)(C)C)c2cccs2)cc1 (centres unmarked)  -49.5%
4. COc1ccc2nc(NC(=O)c3c(C)noc3C)sc2c1  -34.3%
5. COc1ccc(OC)c(CCNC(=O)c2ccc(CS(=O)Cc3ccc(Cl)cc3)o2)c1 (centres unmarked)  -31%
6. Cc1cc(=O)n2nc(N3CCCC(C(=O)NCc4cccc(Br)c4)C3)sc2n1 (centres unmarked)  -30.2%
7. Cc1cc(/C=C(\C#N)C(=O)OCC#N)c(C)n1CC(C)C  -27.6%
8. CCOC(=O)c1ccc(S(=O)(=O)N2CCC(C(=O)NCc3ccccc3OC)CC2)cc1  -22.5%
9. CC(C)OC(=O)Nc1ccc2c(c1)N(C(=O)CCN(C)C)c1ccccc1CC2.Cl  -20.8%
10. CC(=O)c1ccc(NC(=O)CSc2nnc(-c3ccncc3)o2)cc1  -12.9%
11. O=C(Nc1cccc2ncccc12)c1ccc2c(c1)OCCO2  -12.5%
12. CC(=O)NC(NC(=S)Nc1cccc(Br)c1)C(Cl)(Cl)Cl (centres unmarked)  -11.3%
13. CC(NC(=S)NNS(=O)(=O)c1ccc(C(C)(C)C)cc1)c1ccccc1 (centres unmarked)  -11.2%
14. COc1cc(NS(C)(=O)=O)c(OC)cc1NC(=O)c1ccccc1  -9.96%
15. CC(=O)c1ccc(COC(=O)c2cc3ccccc3oc2=O)cc1  -9.26%
16. CCOC(=O)c1cc(C#N)c(Oc2cccc(C(F)(F)F)c2)nc1-c1ccccc1  -8.34%
17. CCOCC(=O)Nc1nc2ccc(S(C)(=O)=O)cc2s1  -8.14%
18. CCc1ccc(NC(=S)N2CCCCCCC2)cc1  -8.14%
19. O=C(CSc1nnc(CNC(=O)c2ccccc2F)o1)NCc1ccccc1  -7.93%
20. COc1cc(NC(=O)c2cc(Cl)nnc2Cl)cc(OC)c1OC  -6.59%
21. O=c1[nH]c(=S)n(-c2ccc(Cl)cc2)c(O)c1/C=N/N1CCOCC1  -6.08%
22. N#CC(c1ccc(=O)[nH]n1)c1ccc(Cl)cc1Cl (centres unmarked)  -5.22%
23. COc1ccc(-c2cc(C(=O)N(C)CC(=O)Nc3cccc(F)c3)c3ccccc3n2)cc1  -5.13%
24. Cc1ccccc1OCC(=O)NCCCNC(=O)c1ccncc1  -5.1%
25. CN(C)/C=C(/C(=O)c1ccc(Cl)cc1Cl)S(=O)(=O)c1ccc(Cl)cc1  -5.04%
26. COC(=O)c1cc(OC)c(OC)cc1NC(=O)c1ccc(OC)c(OC)c1  -4.57%
27. O=C1CC(N2CCN(c3ccccc3)CC2)C(=O)N1c1cccc(Br)c1 (centres unmarked)  -1.92%
28. Cc1cc(NC(=O)CN(C)CC(=O)Nc2ccc(F)c(F)c2F)no1  -1.16%
29. CN(C)S(=O)(=O)N1CCN(Cc2ccccc2)CC1  -0.578%
30. CCOC(=O)Cc1csc2nc3sc(C)c(C)c3c(=O)n12  -0.0665%
31. COc1ccc(OCCC(=O)N2CCCCC2)cc1  0.408%
32. CC1(C(=O)Nc2cccc3ccccc23)CC1(Br)Br (centres unmarked)  0.448%
33. Cc1nn(C(=O)c2cccnc2)c(C)c1C  0.855%
34. COc1cc(NC(=O)CSc2nc(C)c(C)c(C)n2)c(C)cc1[N+](=O)[O-]  0.898%
35. O=C(Nc1nc(-c2ccccc2)c(-c2ccccc2)s1)c1ccc(S(=O)(=O)N2CCCCC2)cc1  2.91%
36. O=C(O)CCCC(=O)N1CCN(c2cccc(Cl)c2)CC1  2.98%
37. CCC(Oc1ccccc1)C(=O)NC1CCSC1=O (centres unmarked)  3.17%
38. COc1ccc(C2NC(=O)c3ccccc3O2)cc1OC (centres unmarked)  3.2%
39. CCOc1ccc(NC(=O)Cn2nnc(-c3ccccc3NC(=O)c3cccs3)n2)cc1  3.51%
40. O=C(NCCCN1CCCC1=O)c1ccc(Cl)c(NS(=O)(=O)c2ccc(F)cc2)c1  3.69%
41. CSc1nc(C)cc(SCC(=O)N/N=C/c2ccccc2)n1  3.7%
42. Cc1ccc(C(=O)Oc2ccccc2N2C(=O)C3C4CCC(C4)C3C2=O)cc1 (centres unmarked)  3.99%
43. Cc1ccc(SC2CC(=O)N(c3ccc4c(c3)OCCO4)C2=O)cc1 (centres unmarked)  5.66%
44. CN1CCN(C(=O)C2CCC(CNS(=O)(=O)c3cccc4cccnc34)CC2)CC1 (centres unmarked)  5.72%
45. O=C(c1ccc2c(c1)C(=O)N(CCCO)C2=O)c1ccc2c(c1)C(=O)N(CCCO)C2=O  5.74%
46. Cc1cccc(C)c1NC(=O)C[N+](C)(C)CC(O)COc1cccc2ccccc12.[Cl-] (centres unmarked)  6.31%
47. COc1ccc(NC2=C(C(C)=O)C(c3ccc(N(C)C)cc3)C(C(C)=O)C(C)(O)C2)cc1 (centres unmarked)  9.08%
48. Cc1cccnc1NC(=O)c1c(O)c2ccccc2n(C)c1=O  11.9%
49. Cc1ccc(NC(=O)COC(=O)c2cc(=O)c3ccccc3o2)cc1F  12.9%
50. Cn1cnnc1SCc1nc(N)nc(Nc2ccccc2)n1  14.5%
51. N#Cc1cc2cc3c(cc2nc1SCC(=O)N1CCOCC1)OCO3  14.8%
52. Cc1ccc(/C(O)=C2\C(=O)C(=O)N(C)C2c2ccccc2[N+](=O)[O-])cc1 (centres unmarked)  16.7%
53. CCOC(=O)c1c(NC(=O)c2ccnn2C)sc(C)c1C  17.6%
54. COc1ccc([N+](=O)[O-])cc1NC(=O)CCCOc1ccccc1  21.6%
55. CC1=NC(C)(C)Cc2ccccc21.O=C(O)c1ccccc1O  22%
56. COc1ccc(NC(=O)COC(=O)CCNS(=O)(=O)c2ccccc2)cc1OC  23.2%
